# Laboratory results from the supplement of paper PMC8728848.
# This is one part of the list.
# Columns and labels:
# Assay in all cases: glycan array binding signal (z-score within array); higher = stronger binding
# Conditions in all cases: glycan notation: IUPAC condensed, linker removed
# [1] = molecular target: Fuc(a1-2)Gal6S(b1-3)GlcNAc
# Method in brief: (§1)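 The binding signal is a Z-score computed within each array and averaged over linkers. Arrays of the same protein sequence at different concentrations or buffers were also averaged together. Data originate from 3228 arrays in the Consortium for Functional Glycomics database, kept only where the protein sequence was available.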
# [2] = molecular target: Fuc(a1-2)Gal6S(b1-3)GlcNAc6S
# Method in brief: as §1
# [3] = molecular target: Fuc(a1-2)Gal6S(b1-4)Glc
# Method in brief: as §1
# [4] = molecular target: Fuc(a1-2)Gal6S(b1-4)Glc6S
# Method in brief: as §1
# [5] = molecular target: Fuc(a1-2)GlcNAc
# Method in brief: as §1
# [6] = molecular target: Fuc(a1-2)[Gal(a1-3)]Gal
# Method in brief: as §1
# [7] = molecular target: Fuc(a1-2)[Gal(a1-3)]Gal(b1-3)GalNAc
# Method in brief: as §1
# [8] = molecular target: Fuc(a1-2)[Gal(a1-3)]Gal(b1-3)GalNAc(b1-3)Gal(a1-4)Gal(b1-4)Glc
# Method in brief: as §1
# [9] = molecular target: Fuc(a1-2)[Gal(a1-3)]Gal(b1-3)GlcNAc
# Method in brief: as §1
# [10] = molecular target: Fuc(a1-2)[Gal(a1-3)]Gal(b1-3)GlcNAc(b1-2)Man(a1-3)[Fuc(a1-2)[Gal(a1-3)]Gal(b1-3)GlcNAc(b1-2)Man(a1-6)]Man(b1-4)GlcNAc(b1-4)GlcNAc
# Method in brief: as §1
# [11] = molecular target: Fuc(a1-2)[Gal(a1-3)]Gal(b1-3)GlcNAc(b1-2)Man(a1-3)[Fuc(a1-2)[Gal(a1-3)]Gal(b1-3)GlcNAc(b1-2)Man(a1-6)]Man(b1-4)GlcNAc(b1-4)[Fuc(a1-6)]GlcNAc
# Method in brief: as §1
# [12] = molecular target: Fuc(a1-2)[Gal(a1-3)]Gal(b1-3)GlcNAc(b1-3)GalNAc
# Method in brief: as §1
# [13] = molecular target: Fuc(a1-2)[Gal(a1-3)]Gal(b1-3)GlcNAc(b1-6)GalNAc
# Method in brief: as §1
# [14] = molecular target: Fuc(a1-2)[Gal(a1-3)]Gal(b1-4)Glc
# Method in brief: as §1
# [15] = molecular target: Fuc(a1-2)[Gal(a1-3)]Gal(b1-4)GlcNAc
# Method in brief: as §1
# [16] = molecular target: Fuc(a1-2)[Gal(a1-3)]Gal(b1-4)GlcNAc(b1-2)Man
# Method in brief: as §1
# [17] = molecular target: Fuc(a1-2)[Gal(a1-3)]Gal(b1-4)GlcNAc(b1-2)Man(a1-3)[Fuc(a1-2)[Gal(a1-3)]Gal(b1-4)GlcNAc(b1-2)Man(a1-6)]Man(b1-4)GlcNAc(b1-4)GlcNAc
# Method in brief: as §1
# [18] = molecular target: Fuc(a1-2)[Gal(a1-3)]Gal(b1-4)GlcNAc(b1-2)Man(a1-3)[Fuc(a1-2)[Gal(a1-3)]Gal(b1-4)GlcNAc(b1-2)Man(a1-6)]Man(b1-4)GlcNAc(b1-4)[Fuc(a1-6)]GlcNAc
# Method in brief: as §1
# [19] = molecular target: Fuc(a1-2)[Gal(a1-3)]Gal(b1-4)GlcNAc(b1-3)GalNAc
# Method in brief: as §1
# [20] = molecular target: Fuc(a1-2)[Gal(a1-3)]Gal(b1-4)GlcNAc(b1-6)GalNAc
# Method in brief: as §1
# [21] = molecular target: Fuc(a1-2)[Gal(a1-3)]Gal(b1-4)[Fuc(a1-3)]Glc
# Method in brief: as §1
# [22] = molecular target: Fuc(a1-2)[Gal(a1-3)]Gal(b1-4)[Fuc(a1-3)]GlcNAc
# Method in brief: as §1
# [23] = molecular target: Fuc(a1-2)[Gal(a1-3)]Gal(b1-4)[Fuc(a1-3)]GlcNAc(b1-3)GalNAc
# Method in brief: as §1
# [24] = molecular target: Fuc(a1-2)[Gal(a1-4)]Gal(b1-4)GlcNAc
# Method in brief: as §1
# [25] = molecular target: Fuc(a1-2)[GalNAc(a1-3)]Gal
# Method in brief: as §1
# [26] = molecular target: Fuc(a1-2)[GalNAc(a1-3)]Gal(b1-3)GalNAc(a1-3)[Fuc(a1-2)]Gal(b1-4)GlcNAc
# Method in brief: as §1
# [27] = molecular target: Fuc(a1-2)[GalNAc(a1-3)]Gal(b1-3)GalNAc(b1-3)Gal(a1-4)Gal(b1-4)Glc
# Method in brief: as §1
# [28] = molecular target: Fuc(a1-2)[GalNAc(a1-3)]Gal(b1-3)GlcNAc
# Method in brief: as §1
# [29] = molecular target: Fuc(a1-2)[GalNAc(a1-3)]Gal(b1-3)GlcNAc(b1-2)Man(a1-3)[Fuc(a1-2)[GalNAc(a1-3)]Gal(b1-3)GlcNAc(b1-2)Man(a1-6)]Man(b1-4)GlcNAc(b1-4)GlcNAc
# Method in brief: as §1
# [30] = molecular target: Fuc(a1-2)[GalNAc(a1-3)]Gal(b1-3)GlcNAc(b1-2)Man(a1-3)[Fuc(a1-2)[GalNAc(a1-3)]Gal(b1-3)GlcNAc(b1-2)Man(a1-6)]Man(b1-4)GlcNAc(b1-4)[Fuc(a1-6)]GlcNAc
# Method in brief: as §1
# [31] = molecular target: Fuc(a1-2)[GalNAc(a1-3)]Gal(b1-3)GlcNAc(b1-3)GalNAc
# Method in brief: as §1
# [32] = molecular target: Fuc(a1-2)[GalNAc(a1-3)]Gal(b1-3)GlcNAc(b1-6)GalNAc
# Method in brief: as §1
# [33] = molecular target: Fuc(a1-2)[GalNAc(a1-3)]Gal(b1-4)Glc
# Method in brief: as §1
# [34] = molecular target: Fuc(a1-2)[GalNAc(a1-3)]Gal(b1-4)GlcNAc
# Method in brief: as §1
# [35] = molecular target: Fuc(a1-2)[GalNAc(a1-3)]Gal(b1-4)GlcNAc(b1-2)Man
# Method in brief: as §1
# [36] = molecular target: Fuc(a1-2)[GalNAc(a1-3)]Gal(b1-4)GlcNAc(b1-2)Man(a1-3)[Fuc(a1-2)[GalNAc(a1-3)]Gal(b1-4)GlcNAc(b1-2)Man(a1-6)]Man(b1-4)GlcNAc(b1-4)GlcNAc
# Method in brief: as §1
# [37] = molecular target: Fuc(a1-2)[GalNAc(a1-3)]Gal(b1-4)GlcNAc(b1-2)Man(a1-3)[Fuc(a1-2)[GalNAc(a1-3)]Gal(b1-4)GlcNAc(b1-2)Man(a1-6)]Man(b1-4)GlcNAc(b1-4)[Fuc(a1-6)]GlcNAc
# Method in brief: as §1
# [38] = molecular target: Fuc(a1-2)[GalNAc(a1-3)]Gal(b1-4)GlcNAc(b1-3)Gal(b1-4)GlcNAc
# Method in brief: as §1
# [39] = molecular target: Fuc(a1-2)[GalNAc(a1-3)]Gal(b1-4)GlcNAc(b1-3)Gal(b1-4)GlcNAc(b1-3)Gal(b1-4)GlcNAc
# Method in brief: as §1
# [40] = molecular target: Fuc(a1-2)[GalNAc(a1-3)]Gal(b1-4)GlcNAc(b1-3)GalNAc
# Method in brief: as §1
# [41] = molecular target: Fuc(a1-2)[GalNAc(a1-3)]Gal(b1-4)GlcNAc(b1-3)[Fuc(a1-2)[GalNAc(a1-3)]Gal(b1-4)GlcNAc(b1-6)]GalNAc
# Method in brief: as §1
# [42] = molecular target: Fuc(a1-2)[GalNAc(a1-3)]Gal(b1-4)GlcNAc(b1-6)GalNAc
# Method in brief: as §1
# [43] = molecular target: Fuc(a1-2)[GalNAc(a1-3)]Gal(b1-4)[Fuc(a1-3)]GlcNAc
# Method in brief: as §1
# [44] = molecular target: Fuc(a1-2)[GalNAc(a1-3)]Gal(b1-4)[Fuc(a1-3)]GlcNAc(b1-3)GalNAc
# Method in brief: as §1
# [45] = molecular target: Fuc(a1-2)[GalNAc(a1-4)]Gal(b1-4)GlcNAc
# Method in brief: as §1
binder,measurement,setting,value
"NPA (Narcissus pseudonarcissus), C0HM45 (protein) DNILYSGETLSPGEFLNNGRYVFIMQEDCNLVLYDVDKPIWATNTGGLDRRCHLSMQSDGNLVVYSPRNNPIWASNTGGENGNYVCVLQKDRNVVIYGTARWATGTNIH",glycan array binding signal (z-score),[1],-0.084
same,glycan array binding signal (z-score),[2],-0.121
same,glycan array binding signal (z-score),[3],-0.145
same,glycan array binding signal (z-score),[4],-0.135
same,glycan array binding signal (z-score),[5],-0.182
same,glycan array binding signal (z-score),[6],-0.139
same,glycan array binding signal (z-score),[7],-0.146
same,glycan array binding signal (z-score),[8],-0.152
same,glycan array binding signal (z-score),[9],-0.132
same,glycan array binding signal (z-score),[10],0.04
same,glycan array binding signal (z-score),[11],0.544
same,glycan array binding signal (z-score),[12],-0.143
same,glycan array binding signal (z-score),[13],-0.134
same,glycan array binding signal (z-score),[14],-0.156
same,glycan array binding signal (z-score),[15],-0.152
same,glycan array binding signal (z-score),[16],-0.132
same,glycan array binding signal (z-score),[17],-0.031
same,glycan array binding signal (z-score),[18],0.225
same,glycan array binding signal (z-score),[19],-0.149
same,glycan array binding signal (z-score),[20],-0.129
same,glycan array binding signal (z-score),[21],-0.141
same,glycan array binding signal (z-score),[22],-0.143
same,glycan array binding signal (z-score),[23],-0.146
same,glycan array binding signal (z-score),[24],-0.155
same,glycan array binding signal (z-score),[25],-0.147
same,glycan array binding signal (z-score),[26],-0.15
same,glycan array binding signal (z-score),[27],-0.157
same,glycan array binding signal (z-score),[28],-0.153
same,glycan array binding signal (z-score),[29],-0.098
same,glycan array binding signal (z-score),[30],0.281
same,glycan array binding signal (z-score),[31],-0.131
same,glycan array binding signal (z-score),[32],-0.147
same,glycan array binding signal (z-score),[33],-0.15
same,glycan array binding signal (z-score),[34],-0.151
same,glycan array binding signal (z-score),[35],-0.147
same,glycan array binding signal (z-score),[36],-0.093
same,glycan array binding signal (z-score),[37],0.365
same,glycan array binding signal (z-score),[38],-0.148
same,glycan array binding signal (z-score),[39],-0.075
same,glycan array binding signal (z-score),[40],-0.153
same,glycan array binding signal (z-score),[41],-0.143
same,glycan array binding signal (z-score),[42],-0.15
same,glycan array binding signal (z-score),[43],-0.135
same,glycan array binding signal (z-score),[44],-0.085
same,glycan array binding signal (z-score),[45],-0.146
